Source: the supplement of paper PMC12645437, “Orthogonal IMiD-Degron Pairs Induce Selective Protein Degradation in Cells” (ACS Chemical Biology, 2025)
Some of the results follow.

biological target: no compound (DMSO); test: log2 fold change of degron read counts, EGFP-low vs EGFP+ sorted cells; higher = lower degron-EGFP level without compound (poor expression or instability); conditions: compound: DMSO control; 18 h
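Further: jurkat cells carrying a lentiviral library of mutant zinc finger degrons fused to EGFP plus mCherry, mCherry+ cells FACS sorted, degron abundance counted by next-generation sequencing.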

Sequence | log2 fold change of degron read counts
FICPICGHAFTQKGNLLRHIKL | 0.119
FTCPICGAMFTQKGNLLRHIKL | -0.141
FMCNVCGAEFTQKGNLLRHIKL | -1.28
FTCDVCGALFTQKGNLLRHIKL | -0.923
FDCPQCGACFTQKGNLLRHIKL | -1.52
FDCEVCGAVFTQKGNLLRHIKL | -1.19
FECEVCGAMFTQKGNLLRHIKL | -2.1
FSCPVCGADFTQKGNLLRHIKL | -0.96
FTCNICGAPFTQKGNLLRHIKL | 0.17
FQCPICGRYFTQKGNLLRHIKL | 0.361
FWCEQCGANFTQKGNLLRHIKL | -0.927
LWCPICGFVCTQKGNLLRHIKL | 2.59
FQCNQCGRDFTQKGNLLRHIKL | -0.815
FRCNQCGRHFTQKGNLLRHIKL | -0.0436
FICNICGATFTQKGNLLRHIKL | -1.13
FACNQCGHWFTQKGNLLRHIKL | 1.16

Sequence | log2 fold change of degron read counts
FACPVCGAPFTQKGNLLRHIKL | 0.515
FDCPVCGAFFTQKGNLLRHIKL | -0.945
FRCPVCGASFTQKGNLLRHIKL | -0.44
FACEQCGAWFTQKGNLLRHIKL | -0.819
LVCNQCGFECTQKGNLLRHIKL | -0.807
FQCEICGAIFTQKGNLLRHIKL | -0.867
FQCEICGHKFTQKGNLLRHIKL | -1.92
LMCPICGFECTQKGNLLRHIKL | 0.319
LFCNQCGFQCTQKGNLLRHIKL | 0.498
FQCNQCGHGFTQKGNLLRHIKL | -0.363
FDCNQCGAPFTQKGNLLRHIKL | 0.141
FLCDQCGATFTQKGNLLRHIKL | -1.89
FACDICGALFTQKGNLLRHIKL | -0.687
LSCEICGFTCTQKGNLLRHIKL | -0.635
FTCPICGRFFTQKGNLLRHIKL | -0.152
FACPVCGALFTQKGNLLRHIKL | 0.232
